# Data as given in article PMC4336329 (PLoS ONE, 2015).
# About 14,000 (4.5%) of roughly 310,000 compounds showed an effect of 50% or more. Effects have a minus sign here. Some of the results follow.
# Target: human ether-à-go-go-related gene (hERG) potassium channel (human, UniProt Q12809)
# Assay: primary screen, population patch clamp on CHO cells stably expressing hERG
# 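Also: peak tail current of the secondary pulse compared with the same well before compound.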
# human ether-à-go-go-related gene (hERG) potassium channel, sequence (Q12809 whole entry, looked up): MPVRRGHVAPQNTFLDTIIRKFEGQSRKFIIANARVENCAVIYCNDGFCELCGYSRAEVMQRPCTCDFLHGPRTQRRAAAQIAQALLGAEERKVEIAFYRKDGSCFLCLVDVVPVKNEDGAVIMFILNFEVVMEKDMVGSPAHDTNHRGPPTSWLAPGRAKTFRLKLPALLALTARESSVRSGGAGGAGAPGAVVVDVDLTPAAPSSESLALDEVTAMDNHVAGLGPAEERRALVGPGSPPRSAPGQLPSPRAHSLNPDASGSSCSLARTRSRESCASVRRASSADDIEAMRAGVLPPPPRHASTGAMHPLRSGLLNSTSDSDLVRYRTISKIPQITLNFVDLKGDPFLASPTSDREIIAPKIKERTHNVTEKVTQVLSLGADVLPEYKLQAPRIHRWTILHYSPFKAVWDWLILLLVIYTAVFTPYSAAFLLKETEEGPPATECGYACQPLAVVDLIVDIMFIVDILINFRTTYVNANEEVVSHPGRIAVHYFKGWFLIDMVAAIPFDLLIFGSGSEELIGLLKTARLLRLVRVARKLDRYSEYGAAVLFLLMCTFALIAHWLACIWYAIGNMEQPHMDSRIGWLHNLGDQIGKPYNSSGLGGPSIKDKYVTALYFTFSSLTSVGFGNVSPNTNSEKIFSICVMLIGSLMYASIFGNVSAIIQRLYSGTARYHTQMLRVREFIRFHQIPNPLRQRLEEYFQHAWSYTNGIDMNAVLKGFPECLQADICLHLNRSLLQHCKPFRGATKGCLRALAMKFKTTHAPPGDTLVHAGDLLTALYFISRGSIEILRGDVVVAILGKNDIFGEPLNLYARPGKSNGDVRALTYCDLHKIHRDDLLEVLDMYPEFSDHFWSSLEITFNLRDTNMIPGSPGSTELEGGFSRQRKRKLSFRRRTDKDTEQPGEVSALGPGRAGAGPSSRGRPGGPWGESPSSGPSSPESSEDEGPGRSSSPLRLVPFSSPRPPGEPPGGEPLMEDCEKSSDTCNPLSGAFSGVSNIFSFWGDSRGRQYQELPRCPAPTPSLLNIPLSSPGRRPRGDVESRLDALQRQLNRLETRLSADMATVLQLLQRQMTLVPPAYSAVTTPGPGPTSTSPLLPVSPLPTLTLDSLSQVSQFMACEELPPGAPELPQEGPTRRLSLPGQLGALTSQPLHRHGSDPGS
row,SMILES,"hERG current change (%, negative = inhibition) at 10uM"
1,Cc1ccc(S(=O)(=O)Nc2nc3ccccc3nc2N2CCc3ccccc3C2)cc1,3.37%
2,O=C(/C=C/c1cccc(Cl)c1)NNC(=O)c1ccncc1,-6.64%
3,COc1ccc(-c2nn(-c3ccccc3)cc2C(=O)N2CCOCC2)cc1,-2.01%
4,CCOC(=O)C1(CC/C(C)=N\NC(N)=O)CC(C)OC1=O (centres unmarked),2.82%
5,O=C(CS(=O)c1cccc(Cl)c1)Nc1ccccc1Cl (centres unmarked),-11.4%
6,O=C(C1CCN(Cc2ccc(Cl)cc2)CC1)N1CCN(Cc2ccc3c(c2)OCO3)CC1,-66.6%
7,Cc1cccc(C)c1NC(=O)C(NC=O)c1ccc(Cl)cc1 (centres unmarked),0.758%
8,COc1ccccc1N(CC(=O)Nc1cccc(C(F)(F)F)c1)S(C)(=O)=O,-2.18%
9,COC(=O)c1ccccc1NC(=O)Nc1ccc(Cl)cn1,-3.82%
10,Cc1ccc(NCN2C(=O)C(=O)c3ccccc32)nc1,-2.15%
11,O=C(CSC1=NCCS1)Nc1ccc(F)cc1,15.1%
12,O=C(c1ccc2c(c1)OCCO2)N1CCN(c2ccccn2)CC1,15.8%
13,O=C(COC(=O)CCc1ccccc1)Nc1cc(S(=O)(=O)N2CCOCC2)ccc1N1CCCC1,-20.1%
14,O=c1nc(N(c2ccccc2)c2ccccc2)[nH]c(=O)[nH]1,-8.04%
15,COc1ccc2cc(C(=O)C3CCCN(Cc4ccccn4)C3)ccc2c1 (centres unmarked),-66.2%
16,O=C(Nc1cnccn1)c1ccc(F)cc1Cl,-10.4%
17,CCc1ccccc1NS(=O)(=O)Cc1ccccc1,-1.1%
18,CC(C)N1CC(C(=O)Nc2ccc(S(=O)(=O)N3CCCCC3)cc2)CC1=O (centres unmarked),15.9%
19,CN(CC(=O)NC1CC1)S(=O)(=O)c1cc(Cl)ccc1Cl,6.21%
20,COc1ccc(CN2CCN(C(=O)c3cccnc3)CC2)cc1Br.O=C(O)C(=O)O,-9.65%
21,Nc1ccccc1-c1nnc(-c2ccc(-c3ccccc3)cc2)o1,10.1%
22,O=C(CN1C(=O)c2cccc3cccc1c23)NC1CCCC1,15.1%

row,SMILES,"hERG current change (%, negative = inhibition) at 10uM"
1,COc1ccc(/C=N/NC(=O)CN2CCCC2)cc1,-14.8%
2,COc1ccc(C(=O)Nc2cccc(/C(C)=N/NC(=O)c3ccc([N+](=O)[O-])cc3)c2)cc1OC,-3.06%
3,Cc1cc(/C=N/NC(N)=S)c(C)n1-c1ccc(Cl)cc1,-6.66%
4,O=c1[nH]c(=O)n(Cc2ccccc2)c2c1C(C(F)(F)F)(C(F)(F)F)N=C(c1ccco1)N2,-6.01%
5,O=C(Nc1ccc(Br)cc1)c1ccc(Br)c(S(=O)(=O)Nc2cccnc2)c1,-3.28%
6,Cc1ccc(N2C(=O)c3ccccc3C2C(=O)c2cc(C)ccc2O)cc1 (centres unmarked),5.38%
7,C#CCSc1nnc(CNS(=O)(=O)c2ccc(Br)cc2)n1C,-3.68%
8,Cc1noc(C)c1S(=O)(=O)N1CCN(Cc2ccc3c(c2)OCO3)CC1,-24.5%
9,Cc1cc(Cl)ccc1OCC(=O)NNC(=O)c1cnccn1,11.6%
10,COc1ccc(NC(=O)CCC(=O)N2CCN(S(=O)(=O)c3ccc(C)cc3)CC2)c(OC)c1,-28%
11,CCOc1ccc(N(C)S(=O)(=O)c2ccc(C)c(C(=O)OCC(=O)c3c[nH]c4ccccc34)c2)cc1,6.3%
12,CCOc1ccc(-n2c(=O)c3c4c(sc3n(CC(=O)NCC3CCCO3)c2=O)CCCC4)cc1 (centres unmarked),0.791%
13,CC(C)(C)C(=O)NNC(=O)c1ccc(Oc2cc(Cl)cc(Cl)c2)o1,-4.84%
14,NC1=NC(=O)C(Cc2cccc(Cl)c2)S1 (centres unmarked),15%
15,COc1cccc(-c2nn(-c3ccc(C)cc3)cc2C(=O)N2CCc3cc(OC)c(OC)cc3C2)c1,-31.7%
16,Cc1cc(C(=O)Nc2sc3c(c2C#N)CCC(C)C3)cs1 (centres unmarked),-2.15%
17,Cc1cc(OCc2cn3cccnc3n2)ccc1Cl,-15.3%
18,CC1CCN(C(=O)CSc2ccc(-c3ccc(F)cc3)nn2)CC1,-34.5%
19,Cc1cc(=O)[nH]c(N2CCOCC2)n1,21.4%
20,Cc1ccsc1C(=O)NC(C)c1ccc2c(c1)OCO2 (centres unmarked),-11.7%
21,O=C(CCc1nc2ccccc2c(=O)[nH]1)Nc1ccc(Cl)c(Cl)c1,-4.7%
22,COc1ccc(OC)c(C2N(c3ccccn3)C(=O)C3CCCN32)c1 (centres unmarked),11%

row,SMILES,"hERG current change (%, negative = inhibition) at 10uM"
1,CC(C)Nc1ccc(C(CC(N)=O)NC(=O)c2ccccc2)cc1[N+](=O)[O-] (centres unmarked),6.58%
2,COc1cccc(CN(C(=O)c2cnccn2)C(C(=O)NC2CCCCC2)c2cc(OC)c(OC)c(OC)c2)c1 (centres unmarked),2.63%
3,O=C(NCc1cccnc1)Nc1cccc(Cl)c1,15%
4,CCc1ccc(N2C(=O)c3cc(N4CCOCC4)c([N+](=O)[O-])cc3C2=O)cc1,10.5%
5,CC(C)C(=O)Nc1ccc(C(=O)Nc2ccc(Br)cc2F)cc1,13.9%
6,COc1ccc(-c2nc(NC(=O)Cn3ccc(C(F)(F)F)n3)sc2C)cc1,-2.03%
7,COC(=O)Nc1ccc(S(=O)(=O)N2CCN(C)CC2)cc1,3.05%
8,Cc1cc(C)cc(NC(=O)c2cnn(-c3ccccc3)c2C2CCNCC2)c1.Cl,-19.7%
9,CC(=O)c1ccc(NC(=O)COc2ccc3c(c2)OCO3)cc1,2.21%
10,Nc1nc(COC(=O)c2ccc3c(c2)OCCO3)nc(Nc2ccccc2)n1,10.2%
11,Cc1onc(-c2ccccc2Cl)c1C(=O)NCc1ccc(N2CCCC2=O)cc1,6.83%
12,Cc1ccccc1N1C(=O)NC(=O)/C(=C/c2ccc(N3CCOCC3)o2)C1=O,6.24%
13,CC1CN(C)C(C)C/C1=N\Oc1ccc([N+](=O)[O-])cc1.Cl (centres unmarked),-78.6%
14,Cc1ccc(S(=O)(=O)c2c(C)nn(C(C)(C)C)c2OC(=O)c2ccco2)cc1,3.58%
15,Cc1ccc(-c2cc(-c3ccccc3)[nH]c(=S)c2C#N)cc1,23.3%
16,O=C(COc1coc(CN2CCN(c3ccccc3)CC2)cc1=O)Nc1ccccc1F,-3.41%
17,O=C(CSc1ccc([N+](=O)[O-])cn1)Nc1ccc2c(c1)OCO2,6.75%
18,Cc1ccc(NC(=O)C(=O)NCC2CCCO2)cc1 (centres unmarked),5.47%
19,CCc1ccccc1NC(=O)CN(C)C(=O)CSc1nnc(Nc2ccc(C)cc2)s1,-0.0116%
20,Cc1ccc(-c2nn(C)c(=O)c3ccccc23)cc1S(=O)(=O)NCCN1CCOCC1,-2.69%
21,O=C(O)c1cccc(Cn2c(Cl)c(/C=N/NC(=O)c3ccccc3O)sc2=O)c1,12.6%
22,COC(=O)c1cccc(NC(=O)CSc2nnc(C3CC3)n2C)c1,5.37%

row,SMILES,"hERG current change (%, negative = inhibition) at 10uM"
1,O=C(NCCc1ccccc1)C1CCN(S(=O)(=O)c2cccc3nonc23)CC1,-10.5%
2,O=C(C1=C(O)C(=O)N(CCCN2CCOCC2)C1c1ccccn1)c1cc2ccccc2o1 (centres unmarked),-1.14%
3,Cc1c(C(=O)OCC(=O)Nc2c(C)n(C)n(-c3ccccc3)c2=O)oc2ccccc12,-0.217%
4,CSc1ccc(CN2C(=O)NC3(CCCCC3)C2=O)cc1,22.6%
5,CCN(CC)c1ccc(/C=N/NC(=O)Nc2nonc2N)cc1,2.78%
6,NC(=O)c1cc[n+](Cc2ccc([N+](=O)[O-])cc2)cc1.[Br-],10.1%
7,COCCNC(=O)C1CC(c2ccc([N+](=O)[O-])cc2)=NO1 (centres unmarked),-0.798%
8,CCc1cc2c(SCC(=O)NC(=O)c3cccn3C)ncnc2s1,10.5%
9,Cc1ccc(NC(=S)N2CCCC(c3ccccc3)=N2)cc1,9.21%
10,O=C(c1ccc(S(=O)(=O)c2ccccc2Cl)c([N+](=O)[O-])c1)N1CCN(Cc2ccccc2)CC1,-25.3%
11,C=CCNC(=S)Nc1ccc(OC(F)F)c(Cl)c1,-8.12%
12,Cc1cc(C)n2nc(C(=O)OCC(=O)NNC(=O)c3ccc(Cl)cc3)nc2n1,10.6%
13,Cc1ccc(/C=N/NC(=O)CCn2nc(C)cc2C)c(C)c1,-5.4%
14,CC1=N/C(=C\c2ccc([N+](=O)[O-])cc2)C(=O)N1c1ccc(F)cc1F,13.1%
15,Cc1ccc(S(=O)(=O)c2c(C)nn(C(C)(C)C)c2OC(=O)c2ccc(Br)o2)cc1,7.32%
16,COc1cccc(N2CCN(c3ccc4nnc(CCC(=O)Nc5ccc(OC)c(OC)c5)n4n3)CC2)c1,-7.55%
17,NC(=O)c1cc[n+](CC(=O)NC(=O)Nc2ccccc2)cc1,2.81%
18,CCOc1cc(S(=O)(=O)Nc2ccccc2CC)ccc1Cl,-18.9%
19,O=S(=O)(c1ccccc1)[C@@]1(c2ccccc2)C[C@@H]2ON=C(c3cccc(Br)c3)[C@@H]2C1,13.3%
20,CCC(=Nc1ccc2c(c1)CCC2)c1c(O)n(C2CCCCC2)c(=O)[nH]c1=O,-15.8%
